We go through 87 compounds from ChEMBL document CHEMBL4888484, “Replenishing the malaria drug discovery pipeline: Screening and hit evaluation of the MMV Hit Generation Library 1 (HGL1) against asexual blood stage Plasmodium falciparum ,using a nano luciferase reporter read-out” (2022).

Hit rate of the full screen: of about 150,000 compounds, about 540 (0.36%) showed an effect of 50% or more. Some of the results follow.

The term % Inhibition denotes the relative decrease from the control value, in per cent.

The assay concerns Plasmodium falciparum. The assay can be described thus: Primary screen in NF54 nanoGlo assay, in single point, at 2uM, 72h; a lower Z score goes with more inhibition. Type of assay: functional, Erythrocyte. Conditions: timepoint 72 hour.
As for `Cn1ncnc1CNC(C)(C)Cc1ccc(C(F)(F)F)cc1`, the “% Inhibition” value is listed as -5% and the Z score is listed as 0.7.
The matching figures for `CC(CC(=O)O)CC(=O)N1C2CCC1c1cnc(C(C)C)nc1C2` (centres undefined): -9% and 0.98.
Regarding `CN1C[C@@H]2CCCN(S(=O)(=O)c3ccoc3)[C@@H]2C1`, the “% Inhibition” value was -2% and the Z score was found to be 0.25.
Consider `COc1cc(-c2c(C#N)c(N)nc3c2N2CCC3CC2)ccc1F`, for which the “% Inhibition” value was -3% and the Z score turned out to be 0.3.
As for `CCc1nccn1CC(C)N1C[C@H]2CC=CC[C@H]2C1` (some centres undefined), the “% Inhibition” value is listed as -12% and the Z score is 1.19.
Consider `O=C1CN=C(c2ccccc2)c2cc(Br)ccc2N1`, for which the “% Inhibition” value is reported as -1% and the Z score came out at 0.14.
For `N#Cc1nc(C2CC2)oc1N1CCNCC1`, the “% Inhibition” value came out at 3% and the Z score is on record as -0.61.
With `CC(C)NC(C)C(O)c1ccc(Br)cc1` (centres undefined), the “% Inhibition” value is -9% and the Z score stood at 1.39.
Taken in the same sequence, the figures for `Cc1ccccc1[C@H]1C[C@@H](O)[C@@H](O)[C@@H]1NCC1CCCC1` were -3% and 0.43.
Take `C=CCC[C@H](C)Nc1ccc2c(c1)oc(=O)n2C`: the “% Inhibition” value is reported as -20% and the Z score is 2.22.
Taken in the same sequence, the figures for `CC(C)N(C)C(=O)CN(C)[C@@H](C)Cc1cnccn1` were 6% and -1.06.
For `CCC1CN2CCCC2CN1S(=O)(=O)CC` (centres undefined), the “% Inhibition” value was -7% and the Z score was 1.05.
On to `O=C1C2CCN(CC2)[C@H]1Cc1ccccc1F`, for which the “% Inhibition” value is given as -18% and the Z score was found to be 3.41.
For `CCc1cnc(N2CCc3c(cnc(C)c3-c3noc(CNC(C)=O)n3)C2)nc1`, the “% Inhibition” value is 4% and the Z score is -0.47.
As to `COC(c1ccccc1)C(C)NCCO` (centres undefined), the “% Inhibition” value came to 2% and the Z score is reported as -0.23.
The matching figures for `COc1ccc(-c2csc(-n3cc(C4=CCN(CCO)CC4)cn3)n2)cc1`: 50% and -5.49.
As to `O=C(c1ccc(F)c(F)c1)N1C2CCC1c1cncnc1C2` (centres undefined), the “% Inhibition” value is -1% and the Z score was found to be 0.14.
For the compound `N#Cc1ccc(N2CCC3(CC2)OCCO3)cc1C(F)(F)F`, the “% Inhibition” value is recorded as -14% and the Z score came to 1.86.
The matching figures for `COc1ccc2c(c1)[C@@]1(CCN(C(=O)c3ccc(F)cc3)C1)C(=O)N2`: -15% and 1.82.
The matching figures for `CC(C)C(=O)N1CC[C@@H]2COCCN(Cc3ccncc3)[C@@H]2C1`: -11% and 2.03.
Consider `O=C(c1cccc(F)c1)N1CCC2(CC1)N(c1ccccc1)C(=O)C[S@+]2[O-]`, for which the “% Inhibition” value is -8% and the Z score is given as 1.61.
The matching figures for `CC(=O)Nc1ccc2n(c1)cc(-c1ccc(OC(=O)N(C)C)cc1)[n+]2C`: -14% and 1.69.
As for `CN1CCC(OC(=O)Cc2ccccc2)CC1`, the “% Inhibition” value is given as -12% and the Z score is on record as 1.11.
`O[C@H]1C[C@@H]2CN(Cc3ccncc3)C[C@@H]2C[C@@H]1O`: the “% Inhibition” value was -1% and the Z score was found to be 0.18.
`CC1CCC(NC(=O)[C@H]2CCCN(S(=O)(=O)c3ccc4[nH]c(=O)oc4c3)C2)CC1` (some centres undefined): the “% Inhibition” value is reported as -13% and the Z score worked out at 1.34.
The matching figures for `CC(C)C[C@H](CN)CC(=O)OCCOC1CCC1`: 6% and -0.7.
Turning to `Cc1ccc(NS(=O)(=O)CCCS(=O)(=O)F)nc1`, the “% Inhibition” value stood at 0% and the Z score is listed as 0.06.
With `C[C@H](NC(=O)Nc1ccccc1)C(=O)N1CCC2(CC1)OCCO2`, the “% Inhibition” value is on record as -2% and the Z score amounted to 0.35.
Consider `COc1ccc2c(c1)c(C(=O)Nc1nc[nH]n1)cn2C(C)C`, for which the “% Inhibition” value is listed as -3% and the Z score is given as 0.37.
For the compound `CC(C)Cn1cncc1Cn1cnc2cn(C)nc2c1=O`, the “% Inhibition” value is reported as -10% and the Z score was 1.29.
Turning to `CCCc1nc(CN[C@@H](C)Cn2ccnc2CC)cs1`, the “% Inhibition” value is reported as -5% and the Z score is on record as 0.61.
For the compound `O=C(COc1ccc2c(c1)OCO2)N1C[C@H](O)[C@@H](N2CCCOCC2)C1`, the “% Inhibition” value is recorded as 7% and the Z score is -1.25.
With `COc1ccc(C(=O)Nc2cccc(-c3noc(=O)[nH]3)c2)c(O)c1`, the “% Inhibition” value is 1% and the Z score is reported as -0.1.
Turning to `c1ccc(COCc2cn(CCc3c[nH]cn3)nn2)cc1`, the “% Inhibition” value was 5% and the Z score is listed as -0.68.
Consider `COc1c(C)cc(C(=O)[C@H]2CCCN(C3CCCC3)C2)cc1C`, for which the “% Inhibition” value is -1% and the Z score is given as 0.13.
For `CCn1nc(-c2ccc(OC)cc2F)cc1C(=O)N1CCC2(CC1)OCCO2`, the “% Inhibition” value was -16% and the Z score is 1.95.
`CN1C2CCC1CN(c1ncc(Cl)cn1)CC2` (centres undefined): the “% Inhibition” value is listed as 4% and the Z score is -0.48.
The matching figures for `O=C(c1ccc(-n2cnnn2)cc1)N1CCC2(CC1)OCCO2`: -18% and 3.41.
For the compound `Cc1ccc(CN2CC3CC2(C(F)(F)F)C3)nn1`, the “% Inhibition” value was -8% and the Z score is reported as 0.74.
In the case of `C=CCCC(=O)NCC#CCN1CCCC1`, the “% Inhibition” value is -7% and the Z score is given as 1.04.
On to `COc1ccc(N2C(=O)NC(=O)C3(Cc4ccccc4N4CC(C)CC(C)C43)C2=O)cc1` (centres undefined), for which the “% Inhibition” value was 7% and the Z score was -0.89.
On to `CN(C)Cc1ccccc1-c1ccc2n(c1=O)C[C@H]1C[C@@H]2CN(CC2CCCCC2)C1`, for which the “% Inhibition” value turned out to be 6% and the Z score is -0.95.
`O=C(Cn1ccc(C(F)(F)F)n1)N1C2CCC1c1ccccc12`: the “% Inhibition” value was -3% and the Z score was 0.5.
Regarding `Cc1cccc(S(=O)(=O)N2C3CCC2C(C(=O)O)C3)c1Cl` (centres undefined), the “% Inhibition” value is -10% and the Z score is listed as 1.05.
Consider `O=C(Cc1ccc(Cl)c(Cl)c1)N1CCC2(CC1)OCCO2`, for which the “% Inhibition” value is reported as -11% and the Z score is 1.58.
Taken in the same sequence, the figures for `CCO[C@@H](C)CNC(=O)N1CCC(N(C(=O)CC)c2ccccc2)CC1` were -3% and 0.63.
Taken in the same sequence, the figures for `O=C(c1ccc(F)c(F)c1)N1C[C@H]2COc3ccccc3C[C@@]2(C(=O)O)C1` were -7% and 1.31.
In the case of `O=C(c1ccncc1)N1C[C@H](c2cc(F)cc(F)c2)[C@@H]2[C@H]1C1CCN2CC1`, the “% Inhibition” value came to 6% and the Z score is reported as -0.89.
In the case of `CN1CC[C@@H]2CN(c3nnc(-c4ccon4)s3)C[C@@H]21`, the “% Inhibition” value was -8% and the Z score was found to be 1.15.
Taken in the same sequence, the figures for `CCCn1cc(C(=O)Nc2cc(N(C)C)n3nc(C)cc3n2)nn1` were 10% and -1.33.
On to `CN1CC=C(c2noc(CCC(=O)NCc3ccccc3Cl)n2)CC1`, for which the “% Inhibition” value is recorded as -10% and the Z score is 1.18.
As for `CCc1ncc(CN[C@](C)(CO)Cc2ccc(Cl)cc2)o1`, the “% Inhibition” value is recorded as -10% and the Z score is on record as 1.57.
Take `Cc1cc(C)c(C#N)c(N2CCN3CCN(C)C(=O)[C@@H]3C2)n1`: the “% Inhibition” value is listed as -20% and the Z score is recorded as 3.77.
Regarding `CC(C)S(=O)(=O)N1CC[C@@H]2COCCN(C)[C@@H]2C1`, the “% Inhibition” value is listed as -9% and the Z score came out at 1.17.
For `Cc1ccccc1CC(C)NCC1CCCS1(=O)=O` (centres undefined), the “% Inhibition” value is -10% and the Z score came to 1.11.
Regarding `Cc1cc(C)c(CNc2ccc(Br)cn2)c(=O)[nH]1`, the “% Inhibition” value is reported as -10% and the Z score stood at 1.26.
Regarding `O=C(c1cccc(-c2ncccn2)c1)N1CCCN2CCC[C@H]2C1`, the “% Inhibition” value is on record as 7% and the Z score is on record as -0.89.
`CCOc1ccccc1C(=O)N1CCC2(CC1)c1nccn1-c1ccccc1CN2C`: the “% Inhibition” value was -13% and the Z score is given as 1.74.
Consider `O=C(Cc1ccccc1)N1C[C@@H]2C[C@@H](O)CN2C2(CN(Cc3ccccc3)C2)C1`, for which the “% Inhibition” value was -7% and the Z score is listed as 1.17.
The matching figures for `CN1CCN([C@H]2COC[C@@H]2NC(=O)c2cncc(Cl)c2)CC1`: -5% and 0.63.
In the case of `CC[C@@H](C(=O)N(CC)c1ccncc1)N1CCCC1=O`, the “% Inhibition” value is listed as 10% and the Z score is reported as -1.39.
`O=C(CCCCc1nc2ccccc2s1)N1CCC(Nc2ccccc2Cl)CC1`: the “% Inhibition” value is -12% and the Z score turned out to be 1.1.
In the case of `CO[C@H]1C[C@H]2CC[C@@H](C1)N2Cc1ccc2c(c1)CCO2`, the “% Inhibition” value is recorded as -6% and the Z score is given as 1.15.
With `O=C(Cc1ccc(F)cc1)N(CCN1CCCC1)CC(=O)N(Cc1ccc(F)cc1)Cc1cccs1`, the “% Inhibition” value is on record as -6% and the Z score is listed as 0.87.
On to `CCOC(=O)[C@]12CCCN[C@@H]1CCN(c1nccc(OC)n1)C2`, for which the “% Inhibition” value is reported as -14% and the Z score came to 1.39.
Turning to `C[C@H](NC(=O)c1cnn(Cc2ccccc2)c1)C1=CCCCC1`, the “% Inhibition” value is given as -6% and the Z score turned out to be 1.17.
Taken in the same sequence, the figures for `Cn1ncc(Cl)c1CN1CC2(CCOCC2)C1` were -3% and 0.39.
Consider `C[C@@H](CCO)C1(CNC(=O)c2cccc3oc(=O)[nH]c23)CCC1`, for which the “% Inhibition” value is given as -8% and the Z score is listed as 1.23.
On to `Cc1ccc2snc(-c3nc([C@@H]4CN5CCN4CC5)no3)c2c1`, for which the “% Inhibition” value is given as -7% and the Z score is on record as 0.97.
The matching figures for `CC(C)(C)C(=O)NCC#CCN1CCCCC1`: -10% and 1.82.
`C=CCN1CC[C@]23c4c5ccc(O)c4O[C@H]2C(=O)CC[C@@]3(O)C1C5`: the “% Inhibition” value is given as -14% and the Z score is recorded as 1.2.
Taken in the same sequence, the figures for `CC1(C)NC(=O)c2ccccc2-n2nnnc21` were 9% and -1.36.
For `COC1CCN(C2CN(C(=O)Cc3ccsc3)C2)CC1`, the “% Inhibition” value is reported as -5% and the Z score amounted to 0.86.
`Cc1ccc([C@H]2CN(Cc3cc4ccccc4o3)C[C@@H]2C(=O)O)cc1`: the “% Inhibition” value is on record as -4% and the Z score is recorded as 0.48.
As for `O=C1NCCN(Cc2cnc(N3CCOCC3)nc2)C12CCCC2`, the “% Inhibition” value is listed as -4% and the Z score is listed as 0.83.
Regarding `CN1CCC[C@@]2(CCN(c3ccncc3C3CC3)C2)C1`, the “% Inhibition” value came out at 0% and the Z score is 0.05.
In the case of `CN1C(=O)C(C(=O)O)C2c3ccccc3OC13CCCCC23` (centres undefined), the “% Inhibition” value is reported as -12% and the Z score is listed as 1.61.
The matching figures for `COc1ccccc1OCC(=O)N1C[C@H](c2ccc(C)cc2)[C@@H](N(C)C)C1`: -16% and 2.07.
The matching figures for `CC(C)NC(=O)CCc1nc(C2=CCN(Cc3ccc(Cl)cc3)CC2)no1`: -14% and 1.74.
In the case of `CNC(=O)Oc1ccc(-c2cn3cc(Cl)ccc3[n+]2C)cc1`, the “% Inhibition” value is 31% and the Z score is recorded as -3.64.
Consider `C[C@@H](Cc1ccccc1F)NCC1(CO)CCCC1`, for which the “% Inhibition” value is recorded as -3% and the Z score came out at 0.57.
Taken in the same sequence, the figures for `CC1(C)C(C(=O)N2CCC(n3ccnn3)CC2)C1(C)C` were -5% and 0.9.
With `Cc1ccc(Cl)cc1NC(=O)CN1CCCC1=O`, the “% Inhibition” value was -8% and the Z score was determined as 1.15.
As for `Cn1cc(C(C)(C)C(=O)Nc2cccc(S(=O)(=O)F)c2)cn1`, the “% Inhibition” value is listed as 6% and the Z score is reported as -0.79.
As for `O=C(Nc1ccc(-c2noc(=O)[nH]2)cc1)C1CC2(CCOCC2)C1`, the “% Inhibition” value is recorded as -8% and the Z score came out at 0.82.
The matching figures for `COc1cc(CC(=O)N2CCN(C)C3(CCN(C)CC3)C2)cc(OC)c1`: 3% and -0.6.
Taken in the same sequence, the figures for `CC(C)(C)OC(=O)N1[C@@H]2CC[C@H]1[C@@H]1C[C@]1(C(=O)O)C2` were -10% and 1.06.
